Results taken from PubChem BioAssay AID1347120 (National Center for Advancing Translational Sciences (NCATS), 2019).
“And” between values parts separate entries of the source, which are not always exact repeats. Equal values may be shown once. The campaign covered roughly 390,000 compounds. About 930 (0.24%) were called active. This list was built around the results that the source calls inconclusive (neither active nor inactive); the mix of calls is not that of the screen. Calls come from the whole dose curve; as a rule, active = well fitted activation curve with a large enough effect; inconclusive = small, poorly fitted or top-dose-only effect; inactive = no such curve, though single readings can be large or run the other way. Where the call is inconclusive, the potency comes from a doubtful curve fit.
Potency is the fitted concentration of half-maximal effect; tags give direction and shape of the fitted curve.

Experiment: qHTS for Suppressors of FUS Proteinopathy: Primary screen using FUS-linked yeast assay; note: nearly all actives have a fitted effect of over 55% in size
Settings: S. cerevisiae FUS-expressing, OD600, 24 h; Potency: growth rescue; series mostly up to 76.6 µM
In short: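 FUS-expressing yeast, raffinose-pregrown, induced in 2% galactose minimal medium at OD 0.005; compounds in a dilution series, 24hr at 30C. Growth restoration read as absorbance at 600 nm. CP55940 positive control, DMSO negative.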
In the case of `Cc1ccc(-c2nc(NC(=O)c3nn(C)cc3[N+](=O)[O-])sc2C)cc1`, the Potency is reported as inconclusive: 10 µM [activator, partial curve]. With `CCOc1nc(Nc2ccc(F)cc2)nc(N2CCN(c3ccc(OC)cc3)CC2)n1` the Potency was “inactive”. In the case of `Cc1cc(C)nc(SCc2ccc(C(=O)NN=C3C4CC5CC(C4)CC3C5)cc2)n1`, the Potency is reported as inconclusive: 12.6 µM [activator, partial curve, poor fit]. With `COc1ccc(N=C2SC(CC(=O)Nc3cccc(Cl)c3)C(=O)N2Cc2ccco2)cc1` (centres undefined) the Potency was inconclusive: 25.1 µM [activator, single point]. In the case of `COc1ccc(-c2cc(C(=O)N3CCCCCC3)c3ccccc3n2)c(OC)c1`, the Potency is reported as inconclusive: 20 µM [activator, partial curve, poor fit]. In the case of `CCOc1ccc(CCN2C(=S)N([C@@H](Cc3ccc(O)cc3)CN3CCC[C@@H]3CN3C(=S)NC[C@@H]3CC(C)C)C[C@@H]2CC(C)C)cc1`, the Potency is reported as inconclusive: 39.8 µM [activator, partial curve, poor fit]. For `O=C(COc1ccc(Cl)cc1)NCC(c1ccco1)S(=O)(=O)c1ccc(F)cc1` (centres undefined), the Potency was “inactive”. In the case of `CCOCCCNC(=O)C(=O)Nc1c2c(nn1-c1ccccc1)CSC2`, the Potency is reported as inconclusive: 50.1 µM [activator, single point]. For `Cc1ccc(N(CC(=O)NCCSc2ccccc2)S(=O)(=O)c2ccc(F)cc2)cc1`, the Potency was inconclusive: 22.4 µM [activator, partial curve, poor fit]. With `CN1C(=O)C(O)(CC(=O)c2cccc(-n3cccc3)c2)c2ccccc21` (centres undefined) the Potency was inconclusive: 28.2 µM [activator, single point]. With `CC(C)COc1ccc(-c2nn(-c3ccccc3)cc2CO)cc1` the Potency was “inactive”. For `Cc1nn(-c2ccccc2)c2[nH]c(=O)c(CNc3ccc4c(c3)OCCO4)cc12`, the Potency was inconclusive: 11.2 µM [activator, partial curve, poor fit]. In the case of `Clc1ccc(/C=N/c2c(-c3ccc(Cl)cc3)nc3n2CCS3)cc1`, the Potency is reported as inconclusive: 3.55 µM [activator, partial curve, poor fit]. With `Clc1ccc(CSc2ncn(-c3ccccc3)n2)cc1` the Potency was “inactive”. In the case of `COc1ccc(CNc2oc(/C=C/c3cc(OC)c(OC)c(OC)c3)nc2C#N)cc1`, the Potency is reported as “inactive”. With `CCO[C@@H]1OC(C(=O)NCc2ccccc2)=C[C@H](c2ccc(Br)cc2)[C@H]1CCCO` the Potency was inconclusive: 44.7 µM [activator, single point]. With `CCN1CCc2nc3sc(C(=O)Nc4ccccc4OC(F)(F)F)c(N)c3cc2C1` the Potency was inconclusive: 50.1 µM [activator, single point]. In the case of `CCOC(=O)C1CCCN(C(=S)Nc2ccc(Nc3ccccc3)cc2)C1` (centres undefined), the Potency is reported as inconclusive: 31.6 µM [activator, single point]. With `Cc1cc(C)c(NC(=O)CSC2=Nc3ccccc3C3=NC(CC(=O)NCc4cccs4)C(=O)N23)c(C)c1` (centres undefined) the Potency was inconclusive: 31.6 µM [activator, single point]. In the case of `CCOC(=O)N1CCN(S(=O)(=O)N2CCCC(C(=O)NCc3cc(Br)ccc3OC)C2)CC1` (centres undefined), the Potency is reported as inconclusive: 15.8 µM [activator, partial curve] and inconclusive: 50.1 µM [activator, single point]. For `CCOc1ccc(CNC(=O)c2cc3cc(S(=O)(=O)N4CCCCC4)ccc3n2C)cc1`, the Potency was inconclusive: 35.5 µM [activator, partial curve, poor fit]. With `CC(=O)N1CCN(C2=Nc3ccccc3Sc3ccccc32)CC1` the Potency was “inactive”. For `CSc1ccc(CCNC(=O)CN2C(=O)COc3ccc(S(=O)(=O)N4CCCCCC4)cc32)cc1`, the Potency was inconclusive: 22.4 µM [activator, partial curve, poor fit]. With `COc1ccc(C(=O)NCCc2csc(-c3ccc(Cl)cc3)n2)c(OC)c1` the Potency was inconclusive: 35.5 µM [activator, single point]. For `FC(F)(F)c1cccc(-c2nnc(-c3ccccc3)c(N3CCOCC3)n2)c1`, the Potency was inconclusive: 20 µM [activator, partial curve, poor fit]. In the case of `COc1ccc(OC[C@@H](O)CNC(=O)c2cccc3c2C(=O)c2ccc(-c4ccc(F)cc4OCc4ccccc4)cc2S3(=O)=O)cc1`, the Potency is reported as inconclusive: 12.6 µM [activator, partial curve, poor fit]. In the case of `O=C(COC(=O)c1nn(CCO)c(=O)c2ccccc12)Nc1ccc(Cl)c(Cl)c1`, the Potency is reported as inconclusive: 31.6 µM [activator, single point]. For `COc1ccc2c3c(cccc13)C(=O)CC2`, the Potency was “inactive”. For `CS(=O)(=O)NCCSCc1c(F)cccc1Cl`, the Potency was “inactive”. For `Cc1cc(CN(C)C(=O)c2ccc3nc(Cc4ccccc4F)oc3c2)n[nH]1`, the Potency was “inactive”. For `O=C1NC(Cc2ccccc2)c2nc3cc(F)c(F)cc3c(=O)n2-c2cc3ccccc3cc21` (centres undefined), the Potency was inconclusive: 17.8 µM [activator, single point]. In the case of `c1cn2c(NC3CCCCC3)c(-c3ccc(SC4CCCCC4)cc3)nc2cn1`, the Potency is reported as “inactive”. In the case of `Clc1cccc(CNc2ccn3nc(-c4cccc(Cl)c4)cc3n2)c1`, the Potency is reported as “inactive”. For `COc1ccc(S(=O)(=O)Nc2cccc(-c3ccc(N4CCCCC4)nn3)c2)cc1F`, the Potency was inconclusive: 50.1 µM [activator, single point]. In the case of `COc1ccc(-c2sc3ccc(OC)cc3c2C#Cc2cncn2C)cc1`, the Potency is reported as inconclusive: 31.6 µM [activator, single point]. In the case of `CC(C)CCNC(=O)Cn1c2c(c(-c3ccccc3Cl)cc1=O)CCC2`, the Potency is reported as inconclusive: 20 µM [activator, partial curve, poor fit]. With `COc1ccccc1C(=O)Nc1ccc(-c2cc(C(F)(F)F)nn2-c2ccccc2)cc1` the Potency was inconclusive: 50.1 µM [activator, partial curve, poor fit]. For `CCN1CCc2c(OCC(=O)N3N=C(c4cccs4)CC3c3ccc(F)cc3)cccc2C1=O` (centres undefined), the Potency was inconclusive: 35.5 µM [activator, single point]. For `COc1ccc(-c2cc(C3CCN(c4cc(Cl)nc(N)n4)CC3)[nH]n2)cc1`, the Potency was inconclusive: 22.4 µM [activator, partial curve, poor fit].
